Experimental data as given in the supplement of paper PMC12645437, “Orthogonal IMiD-Degron Pairs Induce Selective Protein Degradation in Cells” (ACS Chemical Biology, 2025).
The other results are listed elsewhere or left out.

Molecular target: no compound (DMSO)
Assay: log2 fold change of degron read counts, EGFP-low vs EGFP+ sorted cells; higher = lower degron-EGFP level without compound (poor expression or instability)
Conditions: compound: DMSO control; 18 h
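Further: jurkat cells carrying a lentiviral library of mutant zinc finger degrons fused to EGFP plus mCherry, mCherry+ cells FACS sorted, degron abundance counted by next-generation sequencing.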

Row | Sequence | log2 fold change of degron read counts
1 | FQCSVCGHYFTQKGNLLRHIKL | -0.191
2 | FSCPQCGAVFTQKGNLLRHIKL | -0.388
3 | FGCEQCGAMFTQKGNLLRHIKL | -0.262
4 | FNCNQCGAQFTQKGNLLRHIKL | -1.11
5 | FMCPVCGAIFTQKGNLLRHIKL | 0.586
6 | FTCEQCGAIFTQKGNLLRHIKL | -2.08
7 | LLCNQCGFTCTQKGNLLRHIKL | 0.0382
8 | FQCDICGAQFTQKGNLLRHIKL | -1.47
9 | FWCDVCGATFTQKGNLLRHIKL | -1.23
10 | FCCPICGHLFTQKGNLLRHIKL | -0.14
11 | FWCDICGAWFTQKGNLLRHIKL | 1.37
12 | LGCNQCGFICTQKGNLLRHIKL | 1.4
13 | FTCNQCGAEFTQKGNLLRHIKL | -1.83
14 | FSCPICGADFTQKGNLLRHIKL | 0.00546
